This is an account of results in publication PMC5912448 (2018).

As a reminder, the Kd is the equilibrium constant for the complex coming apart. Low values mean higher affinity, high ones lower affinity.

One test concerns the target VHO2. Put plainly: BLI.
For another test, the target named is VHO1. Put plainly: BLI.
Chain of VHO1 (Q86Z14 1-992): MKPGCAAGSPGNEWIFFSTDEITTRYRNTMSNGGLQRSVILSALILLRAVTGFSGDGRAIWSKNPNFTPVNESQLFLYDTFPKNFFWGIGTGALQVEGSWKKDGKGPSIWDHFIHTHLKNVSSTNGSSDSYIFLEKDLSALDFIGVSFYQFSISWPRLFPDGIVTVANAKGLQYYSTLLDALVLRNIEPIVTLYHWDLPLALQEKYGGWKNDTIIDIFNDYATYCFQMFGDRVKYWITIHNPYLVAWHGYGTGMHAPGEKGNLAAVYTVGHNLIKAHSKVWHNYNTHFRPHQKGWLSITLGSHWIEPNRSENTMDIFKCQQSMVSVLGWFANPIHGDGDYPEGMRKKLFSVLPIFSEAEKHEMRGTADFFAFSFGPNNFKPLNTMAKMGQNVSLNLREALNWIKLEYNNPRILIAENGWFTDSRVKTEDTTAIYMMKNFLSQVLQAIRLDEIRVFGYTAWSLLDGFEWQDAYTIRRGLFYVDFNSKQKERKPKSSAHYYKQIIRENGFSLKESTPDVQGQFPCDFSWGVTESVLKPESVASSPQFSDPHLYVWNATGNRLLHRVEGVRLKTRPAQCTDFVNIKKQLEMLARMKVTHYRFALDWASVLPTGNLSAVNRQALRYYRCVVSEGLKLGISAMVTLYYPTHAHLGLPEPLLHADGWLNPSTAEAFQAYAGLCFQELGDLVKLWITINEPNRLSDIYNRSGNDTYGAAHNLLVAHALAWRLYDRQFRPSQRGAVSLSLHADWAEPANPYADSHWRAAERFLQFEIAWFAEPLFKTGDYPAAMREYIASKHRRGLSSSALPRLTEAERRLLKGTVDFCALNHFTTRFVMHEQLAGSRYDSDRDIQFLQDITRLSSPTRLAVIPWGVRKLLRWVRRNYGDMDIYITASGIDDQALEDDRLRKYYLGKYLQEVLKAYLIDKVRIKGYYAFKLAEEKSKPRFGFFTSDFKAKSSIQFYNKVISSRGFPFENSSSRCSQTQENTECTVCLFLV

Chain of VHO2 (Q86Z14 1-992): as above

B1: human β-Klotho extracellular domain (aa 1–992) His6 (receptor)
chain: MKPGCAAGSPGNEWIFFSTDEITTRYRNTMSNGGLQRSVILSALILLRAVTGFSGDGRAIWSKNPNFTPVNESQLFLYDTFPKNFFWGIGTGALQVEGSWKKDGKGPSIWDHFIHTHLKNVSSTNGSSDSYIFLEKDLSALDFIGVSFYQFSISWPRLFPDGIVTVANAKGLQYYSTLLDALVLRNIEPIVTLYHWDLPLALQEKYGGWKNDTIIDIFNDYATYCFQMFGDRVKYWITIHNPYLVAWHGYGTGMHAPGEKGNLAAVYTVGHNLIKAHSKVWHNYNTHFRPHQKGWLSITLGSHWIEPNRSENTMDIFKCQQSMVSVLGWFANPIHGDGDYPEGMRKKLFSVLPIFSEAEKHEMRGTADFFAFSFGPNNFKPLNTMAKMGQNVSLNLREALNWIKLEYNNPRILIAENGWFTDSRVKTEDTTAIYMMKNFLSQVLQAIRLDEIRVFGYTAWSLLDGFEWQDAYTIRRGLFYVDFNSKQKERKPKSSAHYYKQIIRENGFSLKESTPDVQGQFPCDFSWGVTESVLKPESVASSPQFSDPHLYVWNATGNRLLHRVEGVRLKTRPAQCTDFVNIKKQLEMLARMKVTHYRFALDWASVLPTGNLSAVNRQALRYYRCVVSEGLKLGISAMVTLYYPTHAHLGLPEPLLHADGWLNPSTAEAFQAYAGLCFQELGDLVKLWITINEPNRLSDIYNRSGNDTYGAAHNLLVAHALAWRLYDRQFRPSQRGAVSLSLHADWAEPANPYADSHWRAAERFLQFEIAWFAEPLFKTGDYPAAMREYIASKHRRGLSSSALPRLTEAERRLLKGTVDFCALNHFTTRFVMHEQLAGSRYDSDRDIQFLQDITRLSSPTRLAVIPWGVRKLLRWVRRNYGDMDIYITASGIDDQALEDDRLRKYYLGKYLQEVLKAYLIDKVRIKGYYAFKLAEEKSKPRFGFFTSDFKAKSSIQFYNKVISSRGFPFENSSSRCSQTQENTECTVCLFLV
modifications: biotinylated with EZ-Link Sulfo-NHS-LC-Biotin
For the molecule B1, the values for the Kd in the test with VHO2 and in the test with VHO1 were 1.34 nM and 0.9 nM, respectively.
